Measurements published in patent US11365205B2 (Aurigene Discovery Technologies Limited, priority 2018, dated 2022).

Biological target: PRMT5/MEP50 Complex (Homo sapiens (Human), UniProt O14744)
Assay: PRMT5 inhibition based on TR-FRET assay
Type: biochemical
Conditions: 32 nM PRMT5:MEP50, 50 nM Histone-H4 peptide, 1 μM SAM
Source text: PRMT5 Inhibition Based on TR-FRET Assay:
Protein arginine methyltransferase 5 (PRMT5) is a type II arginine methyltransferase that catalyze mono- and symmetric demethylation on arginine residues of histone or non-histone proteins in presence of S-adenosylmethionine (AdoMet or SAM) a cofactor responsible for donating the methyl group. PRMT5 is reported to be overexpressed in several human cancers. To identify compounds that inhibit the PRMT5 and decrease its activity, a TR-FRET based assay has been established. Time-resolved fluorescence resonance energy transfer (TR-FRET) HTS assays are homogeneous proximity assays where the interaction of two dye-labeled binding partners is detected by the energy transfer between a donor and an acceptor dye and the subsequent light emission by the acceptor dye. PRMT5 catalyzes Histone H4 peptide which is biotin tagged to the Lysine amino acid at carboxyl end, in presence of S-adenosyl-1-methionine (SAM) to methylate the peptide. The antibody specific to mono methylated H4 peptide (H4R3) with Ig conjugate binds to the methylated peptide, indirectly binding to the Europium lanthanide. […]
The compound dilutions were prepared as 7.5% DMSO stock solutions in assay buffer. […] The plates were then read on Victor-3 with Excitation at 340 nm and Emissions collected at 615 and 665 nm in TR-FRET protocol. […]

Sequence of UniProt O14744 (O14744 whole entry): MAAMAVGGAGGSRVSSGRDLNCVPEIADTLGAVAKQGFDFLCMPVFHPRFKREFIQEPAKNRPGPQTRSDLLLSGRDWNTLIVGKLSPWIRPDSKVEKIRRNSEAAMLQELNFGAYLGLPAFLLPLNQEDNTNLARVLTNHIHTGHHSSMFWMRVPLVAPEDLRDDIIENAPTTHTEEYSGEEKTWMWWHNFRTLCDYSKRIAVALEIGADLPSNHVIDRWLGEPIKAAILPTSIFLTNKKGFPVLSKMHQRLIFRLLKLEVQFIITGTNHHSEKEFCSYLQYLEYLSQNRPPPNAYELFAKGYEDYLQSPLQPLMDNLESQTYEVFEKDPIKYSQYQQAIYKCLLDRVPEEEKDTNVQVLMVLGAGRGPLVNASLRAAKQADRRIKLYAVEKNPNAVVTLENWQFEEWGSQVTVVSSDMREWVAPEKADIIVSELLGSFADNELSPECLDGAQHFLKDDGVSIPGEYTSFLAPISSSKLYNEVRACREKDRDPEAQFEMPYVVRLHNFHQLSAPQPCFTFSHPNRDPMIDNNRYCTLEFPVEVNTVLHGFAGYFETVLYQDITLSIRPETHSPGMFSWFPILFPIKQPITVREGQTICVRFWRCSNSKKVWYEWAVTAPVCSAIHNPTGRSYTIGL
Sequence of UniProt O14744 (Q9BQA1 whole entry partner): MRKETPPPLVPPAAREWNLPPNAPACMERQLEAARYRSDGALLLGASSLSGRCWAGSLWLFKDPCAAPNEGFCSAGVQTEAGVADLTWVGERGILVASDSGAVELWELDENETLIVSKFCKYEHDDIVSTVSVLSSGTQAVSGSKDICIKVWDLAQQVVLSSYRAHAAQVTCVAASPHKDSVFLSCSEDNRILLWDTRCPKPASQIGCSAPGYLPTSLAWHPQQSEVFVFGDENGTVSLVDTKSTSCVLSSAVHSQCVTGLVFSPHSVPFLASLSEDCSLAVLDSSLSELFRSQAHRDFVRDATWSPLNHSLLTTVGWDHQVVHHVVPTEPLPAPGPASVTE

SMILES | IC50 [µM]
COc1ccc(CN2CCN(CC(O)CN3CCc4ccccc4C3)C2=O)cn1 (centres unmarked) [Example 13, 1-(3-(3,4-dihydroisoquinolin-2(1H)-yl)-2-hydroxypropyl)-3-((6-methoxypyridin-3-yl)methyl)imidazolidin-2-one] | 0.32
CC1(C)CN(CC(O)CN2CCc3ccccc3C2)C(=O)N1Cc1ccc(C#N)cc1 (centres unmarked) [Example 14, 4-((3-(3-(3,4-Dihydroisoquinolin-2(1H)-yl)-2-hydroxypropyl)-5,5-dimethyl-2-oxoimidazolidin-1-yl)methyl)benzonitrile] | 0.16
